Test results taken from PubChem BioAssay AID602340 (Broad Institute, 2012).
The whole screen tested about 330,000 compounds, of which about 2,600 (0.79%) were called active. Inconclusive means that the source gave no clear call. Such entries were picked first, then a sample of the others.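 Rule for the calls: active = mean ATP rescue above about 67%, or every replicate alone reaching that limit (limit read from the data, passing the limit was not always enough); inconclusive = no clear call, values can overlap the other calls; inactive = mean under the limit and some replicate under it.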

Experiment: suppressors of statin myotoxicity in C2C12 myotubes, primary screen, cell-based, single point, plate reader (AID 602340);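 note: myotubes were challenged with 10 µM simvastatin during compound exposure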
Conditions: C2C12 myotubes + simvastatin, ATP luminescence, 48 h; at 7.49 µM; active compounds read high; scaled: DMSO 0, geranylgeraniol control 100

| Compound | rescue of ATP level |
| --- | --- |
| COc1ccc(S(=O)(=O)Nc2ccc3c(c2)C(=O)N([C@H](C)CO)C[C@H](C)[C@@H](CN(C)S(=O)(=O)c2cccs2)OCCCC[C@@H](C)O3)cc1 | inactive: -56.6% |
| C[C@H](CO)N1C[C@H](C)[C@H](CN(C)S(=O)(=O)c2ccccc2F)Oc2ncc(/C=C/c3ccccc3)cc2C1=O | inconclusive: 77.9% |
| c1ccc(Nc2nc(-c3cccs3)cs2)nc1 | active: 148% |
| CC(=O)c1ccc(OCc2cc([N+](=O)[O-])cc3c2OCOC3)cc1 | inconclusive: 5.37% |
| C[C@H]1CN([C@@H](C)CO)C(=O)c2cc(C3=CCCCC3)cnc2O[C@H]1CN(C)C(=O)c1ccccn1 | inconclusive: 80.7% |
| CN1CCN(C(c2ccccc2)c2nnnn2Cc2ccccc2)CC1 (stereo not given) | active: 141% |
| COc1ccc(C)cc1NC(=O)Nc1ccc(Br)cn1 | inactive: 3.89% |
| C[C@@H]1CN([C@H](C)CO)C(=O)c2cc(NC(=O)C3CCCCC3)ccc2O[C@H]1CN(C)Cc1ccc(-c2ccccc2)cc1 | inconclusive: 66.6% |
| CC(C)NC(=O)N(C)C[C@@H]1Oc2ccc(NC(=O)Nc3ccc4c(c3)OCO4)cc2C(=O)N([C@@H](C)CO)C[C@H]1C | inconclusive: 77.8% |
| COc1cccc(S(=O)(=O)N[C@H]2CC[C@H](CCN)O[C@@H]2CO)c1 | inactive: -16.3% |
| Cc1cccc(S(=O)(=O)N2CCCCN3[C@H](CO)[C@@H](c4ccc(C#C[C@H](C)O)cc4)[C@@H]3C2)c1 | inconclusive: 66% |
| COc1ccc(S(=O)(=O)Nc2ccc3c(c2)CC(=O)N([C@H](C)CO)C[C@@H](C)[C@H](CN(C)CC2CCCCC2)O3)cc1 | inconclusive: 77% |
| O=C(Nc1cc(F)ccc1F)N1C[C@H]2[C@@H](c3ccccc31)[C@@H](CO)N2Cc1ccncc1 | inactive: -6.03% |
| CC(C)C[C@H](NC(=O)OC(C)(C)C)C(=O)N1CCC(C(=O)N[C@@H](Cc2c[nH]c3ccccc23)C(=O)O)CC1 | inconclusive: 19.3% |
| Cc1c(C)c2ccc(OCC(=O)N(C)C)c(C)c2oc1=O | active: 97.9% |
| C[C@@H]1CN([C@H](C)CO)C(=O)c2cc(NS(=O)(=O)c3ccc(F)cc3)ccc2O[C@@H]1CN(C)Cc1ccc(-c2ccccc2)cc1 | inconclusive: 69.1% |
| COc1ccc(NC(=O)N(C)C[C@H]2Oc3ccc(NC(=O)Cn4cnnn4)cc3C(=O)N([C@H](C)CO)C[C@H]2C)cc1 | inconclusive: 67.6% |
| CC(=O)c1c(C)[nH]c(C(=O)OCC(=O)Nc2sc3c(c2C#N)CCC(C)C3)c1C (stereo not given) | inconclusive: 4.63% |
| Cc1ccc(/C=N/c2sc3c(c2C#N)CCC3)s1 | active: 120% |
| C[C@H]1CN([C@@H](C)CO)S(=O)(=O)c2ccc(-c3cccnc3)cc2O[C@H]1CN(C)C(=O)NC1CCCCC1 | inconclusive: 85% |
| O=C(CSc1nnc2c(n1)[nH]c1ccc(F)cc12)OCc1ccccc1 | active: 85.2% |
| CC#C[C@@H](CC)c1ccc2ccn(C)c2c1 | inactive: 4.24% |
| O=C(COc1cccc(C(F)(F)F)c1)Nc1ccc(S(=O)(=O)N2CCCC2)cc1 | active: 116% |
| CCOc1ccccc1N1CCN(C2=C(NS(=O)(=O)c3cccs3)C(=O)c3ccccc3C2=O)CC1 | active: 110% |

| Compound | rescue of ATP level |
| --- | --- |
| Cc1cc(C(=O)Nc2ccc3c(c2)C(=O)N(C)[C@@H]2CC[C@@H](CC(=O)N[C@H](C)c4ccccc4)O[C@@H]2CO3)no1 | inconclusive: 68.1% |
| COc1ccc(-c2nc3c(Cl)cc(C(F)(F)F)cn3c2Cc2cccc(F)c2)cc1OC | inconclusive: 74.5% |
| C[C@H](CO)N1C[C@H](C)[C@@H](CN(C)C(=O)Nc2cccc3ccccc23)OCCCC[C@H](C)Oc2ccc(NC(=O)Nc3ccc4c(c3)OCO4)cc2C1=O | inconclusive: 72.3% |
| CCOC(=O)c1c(C)c(C(=O)NCCCN2CCCC2=O)c(C)n1CC | inconclusive: 71.3% |
| O=c1cc(N2CCN(c3ccccc3)CC2)[nH]c(=O)n1-c1ccccc1Cl | inconclusive: 87% |
| O=C(Nc1nccs1)[C@H]1[C@H](CO)[C@H]2Cn3c(ccc(-c4ccccc4)c3=O)[C@H]2N1CC1CCCC1 | inconclusive: 71.1% |
| COCCn1c(C)cc(/C=N/NC(=O)c2cc3ccccc3cc2O)c1C | inactive: -4.61% |
| CC(C)CC#Cc1cnc2c(c1)C(=O)N([C@@H](C)CO)C[C@@H](C)[C@H](CN(C)S(=O)(=O)c1cccs1)O2 | inconclusive: 67.4% |
| C[C@H](CO)N1C[C@H](C)[C@H](CN(C)S(=O)(=O)c2cccs2)Oc2c(NC(=O)Nc3ccc4c(c3)OCO4)cccc2C1=O | inconclusive: 66.5% |
| CCOC(=O)N1CCN(S(=O)(=O)c2ccc3c(c2)OCC(=O)N3)CC1 | inconclusive: 99.6% |
| Cc1ccc(S(=O)(=O)Nc2cccc3c2O[C@@H](CN(C)Cc2ccc(C(F)(F)F)cc2)[C@H](C)CN([C@@H](C)CO)C3=O)cc1 | active: 77.6% |
| C=CCCCCCCCCC(=O)N1CCN(c2cc3c(cc2F)c(=O)c(C(=O)O)cn3CC)CC1 | inconclusive: -6.63% |
| O=C(CC1C(=O)NCCN1C(=O)c1ccc(F)cc1)OCc1ccccc1 (stereo not given) | inconclusive: 85.9% |
| C[C@@H]1CN([C@H](C)CO)C(=O)Cc2cc(NS(=O)(=O)c3cccs3)ccc2O[C@@H]1CN(C)Cc1ccc(-c2ccccc2)cc1 | inconclusive: 67.8% |
| O=C1c2ccccc2NC(c2cccc(O)c2)N1Cc1ccco1 (stereo not given) | inconclusive: 17.4% |
| Cc1noc(C)c1S(=O)(=O)N(C)C[C@@H]1Oc2ccc(NC(=O)Nc3ccc4c(c3)OCO4)cc2C(=O)N([C@@H](C)CO)C[C@@H]1C | inactive: -47.4% |
| COC(=O)c1ccc(C(=O)OC)c(NS(C)(=O)=O)c1 | inconclusive: 88.1% |
| Cc1cccc(-c2nnc(SCC(=O)NCc3ccc4c(c3)OCO4)n2C)c1 | inconclusive: 92.1% |
| Cc1ccc(C(=O)Nc2ccc3cn[nH]c3c2)cc1S(=O)(=O)N1CCCCC1 | inconclusive: 79% |
| COc1cccc(-c2cc(C(=O)Nc3ccn(Cc4ccc(C)cc4)n3)no2)c1 | inconclusive: 65.5% |
| COc1ccc(OCC(=O)N/N=C2\CCc3ccccc32)cc1 | inactive: -3.18% |
| COc1ccc(CNC(=O)COC(=O)[C@@H]2CCCN2C(=O)c2cccs2)cc1 | inactive: 9.37% |
| COc1ccc(C2NC(=O)NC(c3ccccc3)=C2c2nc3ccccc3s2)cc1 (stereo not given) | inconclusive: 87.5% |
| Nc1nc(NCCO)nc(NC2CCCCC2)c1[N+](=O)[O-] | inconclusive: 78.3% |

| Compound | rescue of ATP level |
| --- | --- |
| Cc1ccc(S(=O)(=O)Nc2ccc3c(c2)C(=O)N([C@@H](C)CO)C[C@H](C)[C@H](CN(C)Cc2ccc(C(=O)Nc4ccccc4N)cc2)O3)cc1 | inconclusive: 65.5% |
| COc1ccc(S(=O)(=O)Nc2ccc3c(c2)CC(=O)N([C@H](C)CO)C[C@H](C)[C@@H](CN(C)S(=O)(=O)c2ccc(C)cc2)O3)cc1 | inconclusive: 74% |
| CC1(C(=O)Nc2ccccc2Br)CCN1C(=O)CC1CC1 (stereo not given) | inconclusive: 78% |
| CC(=O)CCc1c[nH]c2c(C(=O)O)cccc12 | active: 104% |
| Cc1ccc(S(=O)(=O)Nc2ccc3c(c2)CC(=O)N([C@H](C)CO)C[C@@H](C)[C@H](CN(C)Cc2ccc(C(F)(F)F)cc2)O3)cc1 | active: 110% |
| C[C@H](CO)N1C[C@H](C)[C@@H](CN(C)C(=O)Nc2ccccc2)Oc2ccc(NC(=O)NC3CCCCC3)cc2CC1=O | inactive: -28% |
| O=C(CCc1ccccc1)NCC(c1ccco1)N1CCc2ccccc21 (stereo not given) | inactive: -29.8% |
| CC(NC(=O)COc1ccc(Br)cc1)C(=O)O (stereo not given) | inactive: 14.2% |
| C[C@H](CO)N1C[C@H](C)[C@@H](CN(C)C(=O)Nc2cccc3ccccc23)OCCCC[C@H](C)Oc2ccc(NS(=O)(=O)c3ccc(Cl)cc3)cc2C1=O | inconclusive: 77.7% |
| Cc1cc(SCC(=O)c2ccc(O)c(O)c2)n2nc(C)c(-c3ccccc3)c2n1 | inconclusive: 107% |
| C[C@@H]1CN([C@@H](C)CO)C(=O)Cc2cc(NS(=O)(=O)c3ccc(F)cc3)ccc2O[C@H]1CN(C)Cc1ccc(Oc2ccccc2)cc1 | active: 99.3% |
| N#C[C@H]1[C@@H](c2ccc(C3=CCCC3)cc2)[C@@H](CO)N1C(=O)C1CCCC1 | inactive: -24.4% |
| C[C@H]1CN([C@@H](C)CO)C(=O)Cc2cc(NC(=O)Nc3cccc4ccccc34)ccc2O[C@H]1CN(C)Cc1ccc(C(F)(F)F)cc1 | inactive: -32.5% |
| O=C(NCc1cccnc1)C1CC(=O)N(CCc2ccccc2)C1 (stereo not given) | active: 133% |
| CCC[C@H]1CC(=O)C=C(c2ccsc2)ON1C(=O)OC(C)(C)C | inactive: -8.58% |
| COc1ccc(NC(=O)N2CC[C@@H]3[C@H]2c2cc(C4=CCCCC4)ccc2N(C)[C@H]3CO)cc1 | inconclusive: 67% |
| C[C@H](CO)N1C[C@H](C)[C@@H](CN(C)Cc2ccc(Cl)c(Cl)c2)Oc2ccc(NC(=O)NC3CCCCC3)cc2CC1=O | inconclusive: 65.5% |
| CN1C(=O)c2cc(NC(=O)c3cnccn3)ccc2OC[C@H]2O[C@H](CC(=O)NCC3CCCCC3)CC[C@H]21 | inconclusive: 65.7% |
| O=C1N/C(=C\c2ccc(O)cc2)C(=O)c2ccccc21 | inconclusive: 94% |
| CCOc1ccc(N(C(=O)/C=C/C(=O)Nc2cc(C)on2)C(C(=O)NC2CCCC2)c2ccccc2C)cc1 (stereo not given) | inconclusive: 94.8% |
| COc1cccc(C(=O)NC(Cc2ccccc2)c2ccc3c(c2)OCCCO3)c1 (stereo not given) | inconclusive: 74.9% |
| C[C@H]1CN([C@@H](C)CO)C(=O)c2cc(NS(=O)(=O)c3ccc(Cl)cc3)ccc2O[C@@H]1CN(C)C(=O)Nc1ccc2c(c1)OCO2 | inconclusive: 67.9% |
